In all, about 5,400 compounds went through this assay and about 190 (3.5%) showed an effect of 50% or more. Some of the results follow.
These compounds were tested on Vero-E6 (assay: primary screen, phospholipidosis by LipidTOX staining; higher = more effect of the substance). Settings: 10 µM.
In short: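 Single-concentration screen at 10 μM, with DMSO 0.1 v/v % and amiodarone 10 μM as controls. Read-out is LipidTOX Red phospholipid staining, which tolerates aldehyde fixation, in Vero-E6 cells.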

SMILES | result_ITMP [%]
CC(=O)[C@@]1(O)CC[C@H]2[C@@H]3C[C@H](C)C4=CC(=O)C=C[C@]4(C)[C@@]3(F)[C@@H](O)C[C@@]21C | -4.53
CC(N)Cc1c[nH]c2ccc(OCc3cccs3)cc12 (stereo not drawn) | 55.2
CCOc1cccc(NC(=O)c2ccc(N3CCCC3)c(C(F)(F)F)c2)c1 | 0.47
c1ccc2sc(SN3CCOCC3)nc2c1 | -2.03
CN1[C@@H]2CC[C@H]1C[C@@H](OC(=O)C(O)c1ccccc1)C2 (stereo partly drawn) | -3.26
CCc1nc(N)nc(N)c1-c1ccc(Cl)cc1 | -1.87
Cc1c(C(=O)NN2CCCCC2)nn(-c2ccc(Cl)cc2Cl)c1-c1ccc(I)cc1 | -2.72
O[AsH]O[AsH]O (stereo not drawn) | 3.96
O=C(Nc1nc2ccc(NC(=O)C34CC5CC(CC(C5)C3)C4)cc2s1)c1ccccc1 | -0.59
Nc1n[n+]([O-])c2ccccc2[n+]1[O-] | -2.37
COc1cc(C(=O)NCc2ccc(OCCN(C)C)cc2)cc(OC)c1OC | -1.29
CCCN1CCCC[C@H]1C(=O)Nc1c(C)cccc1C | -5.63
CC(=O)NCCCOc1ccc(C(=O)N2CCC(N3C(=O)CCc4ccccc43)CC2)cc1 | -5.45
CC(C)(O)C(=O)Nc1ccc([N+](=O)[O-])c(C(F)(F)F)c1 | -5.53
Cc1ccc2c(c1)C1CN(C)CCC1N2 (stereo not drawn) | 8.11
NC(Cc1c[nH]c2ccc(O)cc12)C(=O)O (stereo not drawn) | -1.81
CCOc1ccccc1C(=O)O | -6.42
NC1CCN(c2cccc(Cl)n2)CC1 | 6.27
Cc1cccc(-c2[nH]c(C(C)(C)C)nc2-c2ccc3c(c2)OCO3)n1 | -5.27
C[C@H]1CC2C([C@@H](O)C[C@@]3(C)C2CC[C@]3(O)C(=O)COC(=O)CCC(=O)[O-])[C@@]2(C)C=CC(=O)C=C12 (stereo partly drawn) | -6.49

SMILES | result_ITMP [%]
CC(NC(=O)c1ccccc1/N=C/c1c(O)ccc2ccccc12)c1ccccc1 (stereo not drawn) | -0.57
C#CCN[C@@H]1CCc2ccccc21 | -0.56
Cn1c(=O)[nH]c2ncn(C)c2c1=O | 0.19
O=C(Nc1cc(C(F)(F)F)cc(C(F)(F)F)c1)Nc1c(Br)cc(Br)cc1-c1nnn[nH]1 | -1.64
CN1CCN(c2ncc(-c3cc(Cl)cc(Cl)c3Cl)c(N)n2)CC1 | 49.1
N#C/C(=C\c1ccc(O)c(O)c1)C(=O)OCCc1cccs1 | -12.2
CC(C)(C)C(=O)/C(=N/c1ccc(Cl)cc1)NNc1ccc(Cl)cc1 | -2.16
COc1cc(OC2CCN(C)CC2)ccc1Nc1ncc2c(n1)n(C1CCCC1)c(=O)n2C | 37.2
C/C(=C\c1csc(C)n1)[C@@H]1C[C@@H]2O[C@]2(C)CCC[C@H](C)[C@H](O)[C@@H](C)C(=O)C(C)(C)[C@@H](O)CC(=O)N1 | -0.28
C1COC(NC(C2CC2)C2CC2)=N1 | -9.1
Cc1cc(C(C)(C)C)c(O)c(C(C)(C)C)c1 | -5.89
COc1ccc(-c2cc(=S)ss2)cc1 | -2.06
N[C@@H](CSS(=O)(=O)[O-])C(=O)O | -1.62
COc1ccc(NS(=O)(=O)c2sc3ccc(Cl)cc3c2C)cc1N1CCNCC1 | 36.8
CN1CCC(c2c[nH]c3ccc(O)cc23)CC1 | -2.21
CN/C(=C\[N+](=O)[O-])NCCSCc1ccc(CN(C)C)o1 | -3.1
CC(C)[C@@]1(NC(=O)[C@@H]2C[C@@H]3c4cccc5[nH]cc(c45)C[C@H]3N(C)C2)O[C@@]2(O)[C@@H]3CCCN3C(=O)[C@H](Cc3ccccc3)N2C1=O | 11.6
Cc1c(C(=O)NCc2cccnc2)nn(-c2ccc(Cl)cc2Cl)c1-c1ccc(Cl)cc1 | -1.97
O[C@@H]1CO[C@H]2[C@@H]1OC[C@@H]2O | -0.79
CC1(C)CCC(C)(C)c2cc(C3(c4ccc(C(=O)O)cc4)OCCO3)ccc21 | 1.81

SMILES | result_ITMP [%]
CC(C)Oc1ccc(-c2nc(-c3cccc4c3CCC4NCCC(=O)O)no2)cc1C#N (stereo not drawn) | -0.21
O=C(O)c1cn(C2CC2)c2cc(N3CCNCC3)c(F)cc2c1=O | -1.31
CC(=O)C1=C(O)[C@@H]2[C@H]3c4c[nH]c5cccc(c45)C[C@H]3C(C)(C)N2C1=O | -1.91
CCCn1c(=O)[nH]c(=O)c2[nH]cnc21 | 0.34
COC(=O)Nc1nc2ccc(Sc3ccccc3)cc2[nH]1 | -0.23
OC[C@H]1O[C@@H](n2cnc3c(NC4CCCC4)ncnc32)[C@H](O)[C@@H]1O | -1.75
COc1cc2ncn(-c3cc(OCc4ccccc4C(F)(F)F)c(C(N)=O)s3)c2cc1OC | -2.1
O=C1C=C2C=C[C@@H]3C[C@@]2(O1)[C@H]1CCCCN31 | -1.13
CSc1cc2c(cc1C(F)(F)F)N(C(=O)Nc1cccnc1)CC2 | -9.16
Cc1cc2nc3c(=O)[nH]c(=O)nc-3n(C)c2cc1C=O | 0.33
CC(C)C(=O)Oc1ccc(CO)cc1[C@H](CCN(C(C)C)C(C)C)c1ccccc1 | 7.66
CCOC(=O)COc1ccc2c(=O)cc(-c3ccccc3)oc2c1 | -8.68
CCCCCCCCCCCCCC[C@@H](O)[C@@H](O)[C@@H](N)CO | -1.8
COc1cc2c(Nc3ccc(Br)cc3F)ncnc2cc1OCC1CCN(C)CC1 | 105
CCc1c2c(nc3ccc(O)cc13)-c1cc3c(c(=O)n1C2)COC(=O)[C@]3(O)CC | -3.55
CCOC(=O)O[C@]1(C(=O)OCCl)CC[C@H]2[C@@H]3CCC4=CC(=O)C=C[C@]4(C)[C@H]3[C@@H](O)C[C@@]21C | -0.35
CCN[C@@H](C)Cc1cccc(C(F)(F)F)c1 | 3.76
Cc1oc(-c2ccccc2)nc1CCOc1ccc(CC2SC(=O)NC2=O)c2sccc12 (stereo not drawn) | -1.81
CCc1cc2c(cc1N1CCC(N3CCOCC3)CC1)C(C)(C)c1[nH]c3cc(C#N)ccc3c1C2=O | 2.32
C[C@]12CC[C@H]3[C@@H](CCC4=CC(=O)CC[C@@H]43)[C@@H]1CC[C@@H]2O | -1.6
